From PubChem BioAssay AID1508649 (National Center for Advancing Translational Sciences (NCATS), 2021)
Out of some 43,000 compounds screened, about 830 (1.9%) were called active. The shares of active, inactive and inconclusive entries below differ from those in the screen. How the source made its calls: active means clear falling dose curves in both reporters; inconclusive means both reporters move, but less clearly or upward; inactive means either reporter flat; the % is the NLuc reporter signal. Potencies of inconclusive entries are left out as doubtful fits.

assay: Cell-based coincidence reporter assay to measure PMP22 gene transcription in S16 Pmp22-F2sN cells - Primary screen; conditions: S16 Pmp22-F2sN Schwann cells (luciferase reporters placed in the Pmp22 gene), FLuc/NLuc coincidence luminescence, 24 h; measured here: NLuc reporter readout, at 57.5 µM (top of the series)
From the text: Assay Provider: Jim Inglese Ph.D. National Center for Advancing Translational Science, National Institutes of Health, Rockville, MD CMT is a heterogeneous group of neurological disorders that affect approximately 1 in 2,500 people. In particular, the most common form of CMT, CMT1A is genetically linked to the duplication of the PMP22 gene which leads to Schwann cell overexpression, thus manifesting itself as a typical case of dose-sensitive diseases. To identify small molecule compounds that can mediate the expression of PMP22 we developed a phenotypic assay screening strategy by utilizing genome editing techniques to construct Schwann cell lines containing novel reporter technology to monitor the transcriptional or translational regulation of PMP22. For high sensitivity we use a bioluminescent reporter system embedded in the 3' UTR of the PMP22 gene (S16(c9) Pmp22-F2sN) to identify compounds that inhibit gene expression. […] We can further discriminate the effect of all transcriptionally active molecules on PMP22 translation or stability with an assay that incorporates a short NLuc peptide (HiBiT) at the C-terminus of expressed PMP22 (S16(f8) PMP22-HiBiT) allowing alpha complementation and luminescence detection of membrane-associated PMP22 protein. These assays were screened against the NCATS Sytravon Library Collection. Miniaturization of these assays to 1536-well plate format for quantitative high throughput screening (qHTS) yielded rich data sets immediately from the qHTS assay (S16(c9) Pmp22-F2sN), when compared with data from a cell viability assay (Cell TiterGlo) to identify compounds that decreased the output signals through cellular toxicity to streamline the selection process of actives for subsequent characterization using the HiBiT assay (S16(f8) PMP22-HiBiT).
Cell-based coincidence reporter assay to measure PMP22 gene transcription in S16 Pmp22-F2sN cells PROTOCOL TABLE (format as described by Inglese J, Shamu CE and Guy RK. 2007) SEQUENCE No. (e.g., 1, 2, 3, etc.); […] (e.g., Cells, Incubation, Reagent, etc.); VALUE and DESCRIPTION. 1. Cells. Add 500-1,000 cells in 4 uL in growth media (DMEM High Glucose, No Phenol Red media + 10% heat-inactivated FBS + 1% Pen/Strep supplemented media) per well into Greiner 1536-well white/solid bottom high base, TC-treated plates. 2. Compounds. Library compounds and controls added at 23nL per well, transferred by Pin Tool. 3. Incubation. Incubate plates at 37C, 5% CO2, 95% RH for 24 h. 4. Reagent. Add 3.5uL Nano-Glo Dual-Luciferase Reporter Assay System reagent 1: Lysis and FLuc reagent per well of Greiner 1536-well plates. 5. Incubation. Incubate plates at room temperature for 10 min., protect from light. 6. Detector. FLuc luminescence measured using CCD-based camera (Viewlux). 7. Reagent. Add 3.5uL Nano-Glo Dual-Luciferase Reporter Assay System reagent 2: Stop&Glo reagent per well of Greiner 1536-well plates. 8. Incubation. Incubate plates at room temperature for 10 min., protect from light. 9. Detector. NLuc luminescence measured using CCD-based camera (Viewlux). NOTES (numbers refer to Sequence numbers above; values are from representative experiments) 6. Luminescence Read #1 (FLuc): Clear filter; Exposure = 10 sec, Gain = High, Speed = Slow, Binning = 2X 9. Luminescence Read #2 (NLuc): Clear filter; Exposure = 1 sec, Gain = High, Speed = Slow, Binning = 2X REFERENCES: 1. Inglese J, Shamu CE and Guy RK, Reporting data from high throughput screening of small molecule libraries, Nature Chemical Biology, 2007, 3(8): 438-441. doi.org/10.1038/nchembio0807-438 2. Yasgar A, Shinn P, Jadhav A, Auld DS, Michael S, Zheng W, Austin CP, Inglese J and Simeonov A, Compound Management for Quantitative High-Throughput Screening. J. Assoc. Lab. Auto., 2008, 13: 79-89. doi: 10.1016/j.jala.2007.12.004
Potency means the concentration at half of the fitted maximal effect; tags describe the fitted curve by direction and shape.

Compound	Potency
CCc1ccc(Nc2ncnc3sc4c(c23)CCCC4)cc1	inconclusive [phenotype inactive, single point]
COc1ccc(C)cc1NS(=O)(=O)c1ccc(-c2cnc(C3CC3)o2)cc1	active: 5.55 µM
Cc1nnc(N2CCC(C(=O)N3CCCCC3)CC2)c2nn(-c3ccccc3)c(C)c12	inactive
Cc1cc(C)cc(NC(=O)C2CCN(C(=O)c3cnn(-c4ccccc4)c3-n3cccc3)CC2)c1	inconclusive [phenotype inactive, single point]
CCSc1nc2c([nH]c3ccccc32)c(=O)n1-c1cccc(OC)c1	inconclusive [phenotype inactive, single point]
CCOc1ccccc1CNC(=O)CN1C(=O)c2cccnc2Oc2ccc(Cl)cc21	inconclusive [phenotype inactive, single point]
O=S(=O)(NCC(c1ccco1)N1CCN(c2ccc(F)cc2)CC1)c1cc(F)ccc1F (stereo unspecified)	inconclusive [phenotype inactive, single point]
COc1ccc(C)cc1-n1c(SCC(=O)NCc2ccco2)nc2c([nH]c3ccccc32)c1=O	inconclusive [phenotype inactive, single point]
CC(C)c1ccc(NC(=O)c2cc(S(=O)(=O)NCCc3ccccc3)ccc2F)cc1	inconclusive [phenotype inactive, single point]
CSc1ccc(CCNC(=O)C2CCCN(S(=O)(=O)N(C)c3ccc(F)cc3)C2)cc1 (stereo unspecified)	inconclusive [phenotype inactive, single point]
CCOCCCNC(=O)CN1C(=O)CCn2nc(-c3cccn3C)cc21	inactive
Cc1ccc(NC(=O)Cn2cc(S(=O)(=O)Cc3ccccc3)c3ccccc32)cc1C	inconclusive [phenotype inactive, single point]
CCOC(=O)c1ccc(N2C(=O)c3n[nH]c(C)c3C2c2ccc(CC)cc2)cc1 (stereo unspecified)	inactive
COc1cc2[nH]c(=O)n(CCCC(=O)N(C)Cc3ccccc3)c(=O)c2cc1OC	inactive
CCc1ccccc1N1C(=O)N(Cc2cc(=O)n3ccccc3n2)c2ccccc2S1(=O)=O	inconclusive [phenotype inactive, partial curve]
COc1ccc(Cc2c(C)nn(-c3nc(C)c(C(=O)Nc4cccc(C(C)=O)c4)s3)c2C)cc1	inconclusive [phenotype inactive, partial curve, poor fit]
